This assay concerns 935938-334-R-J1-PDC spheroids with HUVEC/MSC, viability. In words: Anticancer human tumor 935938-334-R-J1-PDC patient-derived small intestine adenocarcinoma cell line growth inhibition [PI3K]. To be noted: for viability, T/C: stronger effect = lower value; for IC50: compound alone. From the text:
Combinatorial screen of targeted agents with the PI3K inhibitors inavolisib, alpelisib, duvelisib, and copanlisib in multi-cell type tumor spheroids
A high-throughput screen of multi-cell type tumor spheroids was designed to identify active combinations of targeted small molecules and PI3K pathway inhibitors. Complex spheroids include a stromal component modeled by human endothelial cells (HUVEC) and fibroblasts modeled by human mesenchymal stem cells (MSCs). The concentration ranges selected for each drug and investigational agent were based upon clinically achievable concentrations if the clinical Cmax of the agent was known.
Compounds. The drugs and investigational agents: inavolisib (NSC800729), alpelisib (NSC765974), duvelisib (NSC772469), copanlisib (NSC816437), ipatasertib (NSC767898), afuresertib (NSC778305), talazoparib (NSC767125), sapanisertib (NSC764658), selumetinib (NSC741078), tovorafenib (DAY101, NSC766906), vemurafenib (NSC761431), ravoxertinib (NSC781343), sotorasib (NSC818433), MRTX1133 (NSC 836407), abemaciclib (NSC 768073), palbociclib (NSC758247), venetoclax (NSC 766270), SY5609 (NSC837396), enzalutamide (NSC755605), and darolutamide (NSC825331), were obtained from the National Cancer Institute (NCI) Developmental Therapeutics Program Chemical Repository. The FDA-approved anticancer drug set is available from the NCI Developmental Therapeutics Program. […] The stock solutions were prepared in dimethyl sulfoxide (DMSO, Sigma-Aldrich, St. Louis, MO, cat. D2650) at 800-fold the tested concentration and stored at -70 degrees C prior to their use. All drugs and investigational agents were tested over a range starting from a high concentration at or near the clinical Cmax and decreasing in half-log increments. If the clinical Cmax for an agent had not been determined, the highest concentration tested was 10 microM.
Cell Culture. All cells were maintained in an incubator at 37 degrees C and 5% CO2 with 95% humidity. The PDC lines were cultured according to standard operating procedures established by the NCI PDMR (https://pdmr.cancer.gov/sops/default.htm). All PDCs were thawed and cultured in Matrigel-coated flasks prepared with a working solution of 1X Ham's F-12 nutrient mix, without supplementation (Invitrogen, Waltham, MA, cat. 11765054), 100 U/mL penicillin-streptomycin (Invitrogen, cat. 15140122), and 2.5% Matrigel (Corning Inc., Corning, NY, cat. 354248) for the first three passages. The 354836-022-R-J1-PDC, 475296-252-R-J1-PDC, and 997726-040-R-J2-PDC lines were cultured in 6A media, which includes advanced DMEM/F-12 (Thermo Fisher Scientific, cat. 12634028), 10 mM HEPES (Thermo Fisher Scientific, cat. 15630080), 1X GlutaMAX supplement (Thermo Fisher Scientific, cat. 35050061), 0.1 mg/mL primocin (InvivoGen, San Diego, CA, cat. ant-pm-2), 10% defined fetal bovine serum, heat inactivated (HyClone Laboratories Inc., Logan, UT, cat. SH30070.03HI), 50% L-WRN conditioned media (ATCC, cat. CRL-3276), 1.25 mM N-Acetyl-L-cysteine (Sigma-Aldrich, cat. A9165), 10 mM nicotinamide (Sigma-Aldrich, cat. N0636), 1X B-27 supplement (Thermo Fisher Scientific, cat. 17504044), 1X N-2 supplement (Thermo Fisher Scientific, cat. 17502048), and 10 microM Y-27632 dihydrochloride (Tocris Bioscience, Bristol, United Kingdom, cat. 1254). The 624824-186-R-J2-PDC line was cultured in 6C/Colon 1B media, which includes all 6A media components plus 50 ng/mL human EGF recombinant protein (Thermo Fisher Scientific, cat. PHG0311). […]

Each structure is given as a SMILES string. Some entries of the source have several records that differ or are many. This list holds those alone. The source may hold further records. Values given together are repeated measurements (runs, samples, wells, individuals or studies). Counts like (3×) say how often a value occurs here.
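Note: compound exposure lasted seven days before viability was read.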
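Throughout, for viability, T/C: percent of vehicle DMSO treated spheroid viability so 100% = untreated.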

In general, viability, T/C refers to the result in the treated group divided by that in the control group, in per cent. In the case of `CC(Cn1ccc(-c2ccc(C#N)c(Cl)c2)n1)NC(=O)c1cc(C(C)O)[nH]n1` (stereo not given), the viability, T/C reads like this: (compound alone 0.1 µM) 106, 77.8, 87.7, 77.4%; (compound alone 1 µM) 89.5, 66, 98.7, 97.7%; (compound alone 3.16 µM) 116, 86.1, 103, 105%; (compound alone 10 µM) 98, 69.9, 94.5, 95.5%.

With `CC(Nc1ncnc2nc[nH]c12)c1cc2cccc(Cl)c2c(=O)n1-c1ccccc1` (stereo not given), the viability, T/C reads like this: (compound alone 0.1 µM) 91.8, 92.6, 108, 89.1, 85.5, 79.5, 98.9%; (compound alone 0.316 µM) 103, 78.1, 73, 101, 92, 96.1, 88.2, 112%; (compound alone 1 µM) 86, 82.8, 116, 97.4, 90.5, 80.9, 108, 85.8%; (compound alone 3.16 µM) 95.5, 91.4, 86, 109, 73, 73.4, 81.3, 97.2%.

Consider `Cn1ncnc1[C@H]1c2n[nH]c(=O)c3cc(F)cc(c23)N[C@@H]1c1ccc(F)cc1`, for which, where the note is “compound alone 0.00316 µM”, the viability, T/C is 68.1, 63.8, 85.3, 90.4%.

For `C=CC(=O)N1CCN(c2nc(=O)n(-c3c(C)ccnc3C(C)C)c3nc(-c4c(O)cccc4F)c(F)cc23)C(C)C1` (stereo not given), the viability, T/C reads like this: (compound alone 0.0316 µM) 106, 74.2, 97.6, 84.9%; (compound alone 0.316 µM) 79.6, 105, 112, 125%; (compound alone 3.16 µM) 119, 98, 87.5, 114%.

The IC50 is the concentration needed to halve the response being measured. Consider `CC1(C)CCC(CN2CCN(c3ccc(C(=O)NS(=O)(=O)c4ccc(NCC5CCOCC5)c([N+](=O)[O-])c4)c(Oc4cnc5[nH]ccc5c4)c3)CC2)=C(c2ccc(Cl)cc2)C1`, for which the IC50 is listed as 6.82 µM, 6.14 µM, 6.46 µM, > 10 µM. Under “compound alone 0.316 µM”, the viability, T/C is 107, 89.8, 103, 72.6%. Where the note is “compound alone 1 µM”, the viability, T/C is recorded as 73.1, 104, 108, 90.8%. The viability, T/C (compound alone 10 µM) is listed as 31.9, 18.1, 24.6, 72.8%.

For `Cc1nc(NC(=O)N2CCCC2C(N)=O)sc1-c1ccnc(C(C)(C)C(F)(F)F)c1` (stereo not given), the viability, T/C runs as follows: (compound alone 0.0316 µM) 88.6, 95, 112, 96.7, 80.6, 75.9, 89.3, 98%; (compound alone 0.1 µM) 91.6, 78.4, 73.9, 79.5, 97.1, 79.4, 100, 86.2%; (compound alone 0.316 µM) 66.2, 72.7, 59.7, 87.9, 73.6, 76.9, 81.7, 87.3%; (compound alone 3.16 µM) 49.5, 55, 77.7, 62, 52.9, 60.5, 50.8, 64.8%. Besides, the IC50 (run of 04/24/2023) was 6.45 µM, 8.26 µM, > 10 µM, 8.05 µM, 4.48 µM, 4.85 µM, 6.15 µM.

Consider `CCN1CCN(Cc2ccc(Nc3ncc(F)c(-c4cc(F)c5nc(C)n(C(C)C)c5c4)n3)nc2)CC1`, for which the viability, T/C is 86.3, 61.6, 75, 90.3% (compound alone 0.00316 µM); 71.7, 56.7, 66, 95.9% (compound alone 0.0316 µM); 57, 73.4, 58, 84.9% (compound alone 0.1 µM); 43.2, 20.9, 47.9, 46.5% (compound alone 1 µM).

With `CC(=O)c1c(C)c2cnc(Nc3ccc(N4CCNCC4)cn3)nc2n(C2CCCC2)c1=O`, the viability, T/C reads like this: (compound alone 0.000316 µM) 87.1, 48.4, 75.1, 107%; (compound alone 0.1 µM) 56.4, 21.6, 75.7, 75.2%.

As to `C#Cc1c(F)ccc2cc(O)cc(-c3ncc4c(N5CC6CCC(C5)N6)nc(OCC56CCCN5CC(F)C6)nc4c3F)c12` (stereo not given), the viability, T/C (compound alone 0.0316 µM) was 78.1, 100, 73, 86.8%; the viability, T/C (compound alone 0.1 µM) is on record as 102, 82, 76.7, 92.8%; the viability, T/C (compound alone 0.316 µM) is 91.1, 81.3, 63.8, 93.9%; the viability, T/C (compound alone 1 µM) is listed as 83.3, 51.4, 65.8, 90.2%.

Regarding `C[C@@H](NC(=O)c1ncnc(N)c1Cl)c1ncc(C(=O)Nc2cc(C(F)(F)F)c(Cl)cn2)s1`, the viability, T/C is reported as 89.6, 112, 103, 115% (compound alone 0.1 µM); 115, 84.5, 119, 112% (compound alone 0.316 µM); 131, 132, 103, 102% (compound alone 1 µM); 117, 94.5, 97.9, 122% (compound alone 3.16 µM).

In the case of `Cn1nccc1Nc1nccc(-c2ccn(C(CO)c3ccc(Cl)c(F)c3)c(=O)c2)n1` (stereo not given), the viability, T/C (compound alone 0.1 µM) is 93, 85.5, 60.1, 80.7%.

On to `CC(C)NCC(C(=O)N1CCN(c2ncnc3c2C(C)CC3O)CC1)c1ccc(Cl)cc1` (stereo not given), for which the viability, T/C runs as follows: (compound alone 0.0316 µM) 83.5, 55.2, 91.5, 98%; (compound alone 3.16 µM) 62.7, 35.8, 66, 63%; (compound alone 10 µM) 39.5, 26.4, 52, 53.7%.

On to `Cn1cnc2c(F)c(Nc3ccc(Br)cc3Cl)c(C(=O)NOCCO)cc21`, for which the viability, T/C (compound alone 0.00949 µM) is listed as 57.7, 81.2, 76.8, 91.5%.

Turning to `CCCS(=O)(=O)Nc1ccc(F)c(C(=O)c2c[nH]c3ncc(-c4ccc(Cl)cc4)cc23)c1F`, the viability, T/C (compound alone 1 µM) is 106, 141, 103, 111%.

Turning to `Cn1ncc(Cl)c1-c1cc(C(=O)NC(CN)Cc2cccc(F)c2)sc1Cl` (stereo not given), the viability, T/C is 90.6, 104, 76.9, 96% (compound alone 0.0316 µM) and 43.2, 85, 64.1, 61.1% (compound alone 10 µM).

Consider `CC(C)n1nc(-c2ccc3oc(N)nc3c2)c2c(N)ncnc21`, for which the viability, T/C (compound alone 0.01 µM) was 92.1, 96.1, 78.5, 113%.

As to `CC(Nc1ccc2c(c1)OCCn1cc(N3C(=O)OCC3C(F)F)nc1-2)C(N)=O` (stereo not given), the viability, T/C (compound alone 0.00316 µM) is on record as 83.5, 76.2, 83.6, 84.9, 106, 89, 87.9, 96.2%; the viability, T/C (compound alone 0.01 µM) is 95.6, 99.6, 76.8, 94.3, 99.5 (2×), 84.7, 72.1%; the viability, T/C (compound alone 0.1 µM) is reported as 102, 111, 74.4, 100, 94.5, 74, 90.3, 75.2%; the viability, T/C (compound alone 0.316 µM) is reported as 77.2, 84.8, 86.2, 75, 82.2, 78.7, 80.3, 110%; the viability, T/C (compound alone 1 µM) is 54.6, 70.9, 75.6, 70.4, 81, 55, 63.3, 78.2%.

As for `CNC(=O)c1ccc(N2C(=S)N(c3ccc(C#N)c(C(F)(F)F)c3)C(=O)C2(C)C)cc1F`, where the note is “compound alone 1 µM”, the viability, T/C is reported as 83.5, 88.2, 116, 74.5%.

Source of the values: PubChem BioAssay AID1963966 (Molecular Pharmacology Branch, DTP, NCI, 2024).
